# Results: the antibiotic and cytotoxicity screens of Wong et al. (2023)
# The list shows a part of the results.
# Tests used:
# [1] = test system: HSkMC (human skeletal muscle cells); assay: cytotoxicity call (relative viability < 0.9); details: 10 µM
# [2] = test system: HepG2; assay: cytotoxicity call (relative viability < 0.9); details: 10 µM
# [3] = test system: S. aureus RN4220; assay: growth inhibition call (relative growth <= 0.2); details: 50 µM
Structure (SMILES),cytotoxicity call [1],cytotoxicity call [2],growth inhibition call [3]
COc1ccc(NC(=O)Nc2ccc3c(c2)C(=O)N([C@@H](C)CO)C[C@@H](C)[C@@H](CN(C)C(=O)NC(C)C)OCCCC[C@H](C)O3)cc1,inactive,inactive,inactive
Cc1ccccc1S(=O)(=O)N(C)C[C@@H]1Oc2ccc(NC(=O)Nc3cc(Cl)cc(Cl)c3)cc2CC(=O)N([C@@H](C)CO)C[C@@H]1C,active,inactive,inactive
C[C@@H]1CN([C@H](C)CO)C(=O)c2cccc(NC(=O)c3nc4ccccc4s3)c2O[C@@H]1CN(C)Cc1ccc(Cl)c(Cl)c1,inactive,inactive,inactive
Cc1noc(C)c1NC(=O)N(C)C[C@H]1Oc2ccc(NS(=O)(=O)c3cn(C)cn3)cc2C(=O)N([C@H](C)CO)C[C@H]1C,inactive,inactive,inactive
COc1ccc(CN(C)C[C@H]2Oc3ccc(NC(=O)Cn4cnnn4)cc3C(=O)N([C@H](C)CO)C[C@H]2C)cc1,inactive,inactive,inactive
O=C(O)/C=C/c1ccc(O[C@@H]2O[C@H](CO)[C@@H](O)[C@H](O)[C@H]2O)cc1,inactive,inactive,inactive
C[C@@H]1CN([C@H](C)CO)C(=O)c2cc(NC(=O)Nc3ccc(C(F)(F)F)cc3)ccc2O[C@@H]1CN(C)Cc1ccncc1,inactive,inactive,inactive
COc1cccc(NC(=O)C[C@H]2CC[C@H]3[C@@H](COc4ccc(NC(=O)C5CCOCC5)cc4C(=O)N3C)O2)c1,inactive,inactive,inactive
C[C@@H]1CCCCO[C@@H](CN(C)Cc2ccncc2)[C@H](C)CN([C@@H](C)CO)C(=O)c2cc(NC(=O)Nc3ccc(F)cc3)ccc2O1,inactive,inactive,inactive
COc1cccc(C#Cc2cnc3c(c2)C(=O)N([C@@H](C)CO)C[C@@H](C)[C@@H](CN(C)C(=O)C2CCC2)O3)c1,inactive,inactive,inactive
O=C(NCCN1CCOCC1)[C@@]1(CCS(=O)(=O)c2ccccc2)COC(c2ccc(OCCCO)cc2)=N1,inactive,inactive,inactive
COCCNC(=O)C[C@H]1C[C@@H]2c3cc(NS(C)(=O)=O)ccc3O[C@@H]2[C@@H](CO)O1,inactive,inactive,inactive
C[C@@H]1CCCCO[C@@H](CN(C)S(=O)(=O)c2ccc(Cl)cc2)[C@@H](C)CN([C@@H](C)CO)C(=O)c2cc(NC(=O)C3CCCCC3)ccc2O1,inactive,inactive,inactive
CCS(=O)(=O)N1C[C@@H](C)[C@H](OC)CN(C)C(=O)c2cc(NS(=O)(=O)c3ccccc3C)ccc2OC[C@H]1C,inactive,inactive,inactive
C[C@H](CO)N1C[C@H](C)[C@H](CN(C)CC2CCCCC2)OCCCC[C@H](C)Oc2ccc(NC(=O)Nc3ccc(F)cc3)cc2C1=O,active,active,inactive
Cc1ccc(S(=O)(=O)Nc2ccc3c(c2)CC(=O)N([C@@H](C)CO)C[C@H](C)[C@H](CN(C)C(=O)NC(C)C)O3)cc1,inactive,inactive,inactive

Structure (SMILES),cytotoxicity call [1],cytotoxicity call [2],growth inhibition call [3]
Cc1c(C)c2ccc(O[C@@H]3O[C@H](CO)[C@H](O)[C@H](O)[C@H]3O)cc2oc1=O,inactive,inactive,inactive
C[C@H](CO)N1C[C@H](C)[C@H](CN(C)S(=O)(=O)c2ccccc2)Oc2c(NS(=O)(=O)c3ccc(F)cc3)cccc2C1=O,inactive,inactive,inactive
O=C(c1ccncc1)N1C[C@H]2[C@@H](c3ccccc31)[C@@H](CO)N2C(=O)CN1CCOCC1,inactive,inactive,inactive
C[C@@H]1CCCCO[C@H](CN(C)C(=O)Nc2ccc(F)cc2)[C@@H](C)CN([C@H](C)CO)C(=O)c2cc(NC(=O)Nc3ccc4c(c3)OCO4)ccc2O1,inactive,inactive,inactive
C[C@@H]1CCCCO[C@@H](CN(C)Cc2ccccc2)[C@@H](C)CN([C@H](C)CO)C(=O)c2cc(NS(=O)(=O)c3ccc(Cl)cc3)ccc2O1,inactive,inactive,inactive
COc1ccc(NC(=O)Nc2ccc3c(c2)C(=O)N([C@@H](C)CO)C[C@H](C)[C@@H](CN(C)S(=O)(=O)c2cccs2)OCCCC[C@@H](C)O3)cc1,inactive,active,inactive
COc1ccc2c3c(n(c2c1)C)[C@H](CO)N(C[C@]13CCN(CC1)C(=O)CC1CC1)C(=O)CN1CCOCC1,inactive,inactive,inactive
C[C@@H]1CCCCO[C@@H](CN(C)Cc2ccc3c(c2)OCO3)[C@H](C)CN([C@H](C)CO)C(=O)c2cc(NC(=O)CCC(F)(F)F)ccc2O1,inactive,inactive,inactive
CCCN(C)C[C@H]1Oc2cc(C#Cc3ccc(OC)cc3)ccc2S(=O)(=O)N([C@@H](C)CO)C[C@H]1C,inactive,inactive,inactive
C[C@@H]1CCCCO[C@@H](CN(C)C(=O)C2CCCCC2)[C@@H](C)CN([C@H](C)CO)C(=O)c2cc(NC(=O)Nc3ccc4c(c3)OCO4)ccc2O1,inactive,inactive,inactive
COc1ccc(NC(=O)Nc2ccc3c(c2)C(=O)N([C@H](C)CO)C[C@H](C)[C@H](CN(C)Cc2ccc(C(=O)Nc4ccccc4N)cc2)O3)cc1,inactive,inactive,inactive
C[C@@H]1CN([C@H](C)CO)C(=O)c2cccc(NC(=O)Nc3ccc4c(c3)OCO4)c2O[C@H]1CN(C)S(=O)(=O)c1cn(C)cn1,inactive,inactive,inactive
Cc1noc(C)c1NC(=O)Nc1ccc2c(c1)C(=O)N([C@H](C)CO)C[C@H](C)[C@@H](CN(C)Cc1ccc(C(F)(F)F)cc1)O2,inactive,inactive,inactive
C[C@@H]1CN([C@H](C)CO)C(=O)c2cccc(NC(=O)C3CCOCC3)c2O[C@H]1CN(C)S(=O)(=O)c1ccc(Cl)cc1,inactive,inactive,inactive
CNC[C@H]1Oc2cc(C#CCN(C)C)ccc2S(=O)(=O)N([C@@H](C)CO)C[C@@H]1C,inactive,inactive,inactive
